Reference: publication PMC8080764
These are yes or no findings as the source states them, for the method shown. Binding seen in cells or lysates may run through a third protein. Some entries that bind do so weakly or less than the wild type.

Target: T1, serum response factor (SRF), endogenous in C2C12 cells (mouse (endogenous in C2C12)) (UniProt Q9JM73)
T1 sequence: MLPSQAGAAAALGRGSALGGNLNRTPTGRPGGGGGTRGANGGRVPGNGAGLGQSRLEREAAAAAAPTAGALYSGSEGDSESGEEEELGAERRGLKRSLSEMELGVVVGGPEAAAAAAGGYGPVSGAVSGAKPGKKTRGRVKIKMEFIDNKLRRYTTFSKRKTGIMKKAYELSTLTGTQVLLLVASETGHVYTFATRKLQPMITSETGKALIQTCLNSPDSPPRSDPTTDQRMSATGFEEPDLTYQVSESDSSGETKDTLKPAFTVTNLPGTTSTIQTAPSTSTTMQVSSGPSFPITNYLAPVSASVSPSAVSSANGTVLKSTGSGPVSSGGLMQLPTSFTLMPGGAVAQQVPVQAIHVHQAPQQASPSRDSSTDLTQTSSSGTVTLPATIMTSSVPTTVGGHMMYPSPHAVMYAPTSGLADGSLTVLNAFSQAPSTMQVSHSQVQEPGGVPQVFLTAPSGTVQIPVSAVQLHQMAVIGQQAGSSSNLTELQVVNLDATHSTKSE
Assay: co-IP; endogenous SET7 and SRF in C2C12 cells in growth medium (GM) or differentiation medium (DM); 0.5% NP40 lysis buffer

- binding: binds
B1: SET7, endogenous in C2C12 cells (enzyme, UniProt Q8VHL1 1-366)
chain: MDSDDEVVEEAVEGHLDDDGLPHGFCTVTYSSTDRFEGNFVHGEKNGRGKFFFFDGSTLEGYYVDDALQGQGVYTYEDGGVLQGTYVDGELNGPAQEYDSDGRLIFKGQYKDNNRHGVCWIHYPDGGSLVGEVNEDGEMTGEKIAYVYPDQRTALYGKFIDGEMLEGKLATLMATEEGRPHFEVTSGSSVYHFDKSTSSCISSDALLPDPYESERVYVADSLISSAGEGLFSKVAVGPNTVMSFYNGVRITHQEVDSRDWALNGNTLSLDEETVIDVPEPYNHVSKYCASLGHKANHSFTPNCVYDLFVHPRFGPIKCIRTLRAVEAEEELTVAYGYDHSPPGKSGPEAPEWYQVELKAFQATQQK
